Residue numbers refer to the chain shown, from its start. In names and notes the source's numbering stands. Results are given in words; binding and its absence hold for the method and conditions named. For some assays here: Binding seen in cells or lysates may run through a third protein. Some binding calls cover weakened binding; strength is not graded here. Where a sequence is shown, tags or fusion partners need not be part of it. Values belong to the binder of their own block, whether it stands above or below them.
Columns and labels:
[1] = molecular target: T1, PB_(Bem1)-SNAP (Saccharomyces cerevisiae) (UniProt P29366); experiment: SPR; Biacore X100; PB_(Bem1)-SNAP labelled with BG-Biotin and captured on a CM5 chip coated with anti-biotin antibody; PB_(Cdc24) as analyte; HBSEP (10 mM HEPES, 150 mM NaCl, 3 mM EDTA, 0.05% Tween 20, pH 7.4); both purified
T1 sequence (chain, BG-Biotin covalently on the SNAP tag): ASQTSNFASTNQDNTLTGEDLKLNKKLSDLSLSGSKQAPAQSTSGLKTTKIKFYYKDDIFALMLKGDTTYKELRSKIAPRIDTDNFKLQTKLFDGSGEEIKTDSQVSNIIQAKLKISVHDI

[2] = molecular target: T2, Nub-Bem1 (Saccharomyces cerevisiae) (UniProt P29366); experiment: split reporter; manual split-ubiquitin assay in yeast JD53: Nub fusion and Cub-RUra3 (CRU) fusion coexpressed, serial dilutions spotted on medium lacking histidine and uracil with 50 µM CuSO4 and various Met concentrations (0 or 20 µM Met in Figure 3A), 2 d at 30°; interaction stops growth on SD ura-
T2 sequence: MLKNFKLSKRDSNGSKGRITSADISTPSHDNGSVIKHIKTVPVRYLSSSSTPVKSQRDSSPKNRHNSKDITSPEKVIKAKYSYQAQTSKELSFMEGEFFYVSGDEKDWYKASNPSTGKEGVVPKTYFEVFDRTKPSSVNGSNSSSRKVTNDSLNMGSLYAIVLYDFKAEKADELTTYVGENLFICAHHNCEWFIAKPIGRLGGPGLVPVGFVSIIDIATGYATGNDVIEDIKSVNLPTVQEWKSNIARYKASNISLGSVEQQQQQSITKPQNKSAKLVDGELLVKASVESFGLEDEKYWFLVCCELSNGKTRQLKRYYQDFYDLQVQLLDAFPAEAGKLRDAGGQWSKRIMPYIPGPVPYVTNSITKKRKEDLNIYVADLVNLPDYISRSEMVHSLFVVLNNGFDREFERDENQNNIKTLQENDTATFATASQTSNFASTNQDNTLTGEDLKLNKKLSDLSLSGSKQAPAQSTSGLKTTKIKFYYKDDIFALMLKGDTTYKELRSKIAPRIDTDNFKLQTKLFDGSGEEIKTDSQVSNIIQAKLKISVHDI

B1: PB_(Cdc24)(D833G) (domain or fragment, UniProt P11433 668-854)
chain: HDLKNEQFKARHHSSTSTTSSTAKSSSMMSPTTTMNTPNHHNSRQTHDSMASFSSSHMKRVSDVLPKRRTTSSSFESEIKSISENFKNSIPESSILFRISYNNNSNNTSSSEIFTLLVEKVWNFDDLIMAINSKISNTHNNNISPITKIKYQDEDGDFVVLGSDEGWNVAKEMLAENNEKFLNIRLY
binding [1]: no binding (tested: KD > 3.2 μM)

binding [2]: binds
B2: Cdc24_(428-854)-CRU (domain or fragment, UniProt P11433 428-854)
chain: SSDDNNTKELEAALDISKNIARSINENQRRTENHQVVKKLYGRVVNWKGYRISKFGELLYFDKVFISTTNSSSEPEREFEVYLFEKIIILFSEVVTKKSASSLILKKKSSTSASISASNITDNNGSPHHSYHKRHSNSSSSNNIHLSSSSAAAIIHSSTNSSDNNSNNSSSSSLFKLSANEPKLDLRGRIMIMNLNQIIPQNNRSLNITWESIKEQGNFLLKFKNEETRDNWSSCLQQLIHDLKNEQFKARHHSSTSTTSSTAKSSSMMSPTTTMNTPNHHNSRQTHDSMASFSSSHMKRVSDVLPKRRTTSSSFESEIKSISENFKNSIPESSILFRISYNNNSNNTSSSEIFTLLVEKVWNFDDLIMAINSKISNTHNNNISPITKIKYQDEDGDFVVLGSDEDWNVAKEMLAENNEKFLNIRLY

binding [2]: binds
B3: Cdc24_(428-854)-CRU clone Round 4 M2 (domain or fragment, UniProt P11433 428-854)
chain: B2 chain with V361I, E412G, K420R

binding [2]: no binding
B4: Cdc24_(428-854)-CRU clone Round 4 M4 (domain or fragment, UniProt P11433 428-854)
chain: B2 chain with S403R, W407R

binding [2]: no binding
B5: Cdc24_(428-854)-CRU clone Round 4 M6 (domain or fragment, UniProt P11433 428-854)
chain: B2 chain with R308W, K320R, I368R, S376P, Y391D, F398S, K411N

binding [2]: no binding
B6: Cdc24_(428-854)-CRU clone Round 5 M1 (domain or fragment, UniProt P11433 428-854)
chain: B2 chain with F315S, E324G, S329P, F364L, W407R, V409A, M413T, L414W

binding [2]: binds
B7: Cdc24_(428-854)-CRU clone Round 4 M3 (domain or fragment, UniProt P11433 428-854)
chain: B2 chain with T274A, N363H, S376P, N382S

binding [2]: binds
B8: Cdc24_(428-854)-CRU clone Round 4 M5 (domain or fragment, UniProt P11433 428-854)
chain: B2 chain with P278S, D303N, S317G, Y341C, F364T, K420T

Reference: PMC5015938, “A Split-Ubiquitin Based Strategy Selecting for Protein Complex-Interfering Mutations” (G3: Genes|Genomes|Genetics, 2016)
